Laboratory results reported in the supplement of paper PMC3334620.
Over roughly 33,000 sequences, “E-score (-0.5 to 0.5)” has its median near -0.01; the highest 2% begin near 0.26. Some of the results follow.

The sequences below were run against Ste12 (UniProt P13574) (assay: PBM E-score (8-mer binding enrichment) (E-score (-0.5 to 0.5)); higher = stronger / more preferred TF binding; most listed sequences are background and not binding sites). Details: protein concentration: 200 nM; construct: GST-DNA-binding domain.
Experimental: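 Universal 'all 10-mer' protein binding microarrays (Agilent AMADID 015681) probed with GST-tagged S. cerevisiae TFs (full-length or DBD) made by in vitro transcription/translation (PURExpress), about 100-200 nM. Bound TF was detected with fluorescent anti-GST. Each ungapped 8-mer (which stands for itself and its reverse complement) is scored by the PBM enrichment score (E-score), a modified Wilcoxon-Mann-Whitney statistic from -0.5 to +0.5, computed with the Universal PBM Analysis Suite. Scale: above 0.35 generally sequence-specific binding.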
In the case of AGTTTTTC, the “PBM E-score” value is reported as 0.162. In the case of AACGCAGA, the “PBM E-score” value is reported as -0.0953. AGAGATAA was tested, and the “PBM E-score” value was 0.164. In the case of CACACACG, the “PBM E-score” value is reported as 0.13. For CGTTGCCA, the “PBM E-score” value was -0.0755. With GGGCTGAA the “PBM E-score” value was 0.0188. For ATCGATTC, the “PBM E-score” value was -0.0473. CCATCAGG was tested, and the “PBM E-score” value was -0.0848. With ATATAAGG the “PBM E-score” value was 0.0591. TATCACGA was tested, and the “PBM E-score” value was 0.0822. In the case of GTAAGAAC, the “PBM E-score” value is reported as -0.0389. For CTCGTAAC, the “PBM E-score” value was 0.113. AATTTCAA was tested, and the “PBM E-score” value was 0.106. In the case of ACAAACCT, the “PBM E-score” value is reported as -0.111. In the case of CCGCTAGG, the “PBM E-score” value is reported as -0.207. For CACCACAA, the “PBM E-score” value was 0.0252. In the case of GTATGCTA, the “PBM E-score” value is reported as 0.0557. With ACGTCGCA the “PBM E-score” value was 0.0801. With ACTGGGCA the “PBM E-score” value was -0.199. For CGGGCACG, the “PBM E-score” value was -0.0656. For AACCTTCT, the “PBM E-score” value was -0.183. With GTAATATA the “PBM E-score” value was 0.149. CGGATCAA was tested, and the “PBM E-score” value was 0.144. For CTCTCATC, the “PBM E-score” value was -0.19. With CCCGGATA the “PBM E-score” value was -0.0895. CGTCCACA was tested, and the “PBM E-score” value was -0.0571. For CCGCCGCA, the “PBM E-score” value was 0.119. With CAGGAGGG the “PBM E-score” value was 0.0176. With GTCCCATA the “PBM E-score” value was -0.0447. ATGATTTA was tested, and the “PBM E-score” value was 0.255. In the case of ACACCGAC, the “PBM E-score” value is reported as 0.0479. GGCAAATA was tested, and the “PBM E-score” value was 0.162. For CATCGGGA, the “PBM E-score” value was -0.0614. With AGCGGAGC the “PBM E-score” value was -0.159. GGGCGTTA was tested, and the “PBM E-score” value was 0.15. With GTCCGACA the “PBM E-score” value was -0.00141. TAGTCTGA was tested, and the “PBM E-score” value was -0.102. In the case of CGGACACC, the “PBM E-score” value is reported as -0.184. For CGTAGAGC, the “PBM E-score” value was -0.205. In the case of CCATTCGA, the “PBM E-score” value is reported as -0.0588. With GACGGTGA the “PBM E-score” value was 0.0426. In the case of GGAACACC, the “PBM E-score” value is reported as -0.0232. AGAACTAA was tested, and the “PBM E-score” value was 0.0814. In the case of ATCGACGG, the “PBM E-score” value is reported as 0.0442. In the case of GACCCTCC, the “PBM E-score” value is reported as -0.0204. In the case of TCAACGCA, the “PBM E-score” value is reported as 0.0262. GCAACCAA was tested, and the “PBM E-score” value was 0.112. For CTTCCCAC, the “PBM E-score” value was 0.121. In the case of TAAGACAA, the “PBM E-score” value is reported as 0.209. For GGCTCTAC, the “PBM E-score” value was -0.076. With ACGGGTTC the “PBM E-score” value was -0.162. With ACCCTAAT the “PBM E-score” value was -0.268. With CATAATTA the “PBM E-score” value was 0.204. CTCCGAGC was tested, and the “PBM E-score” value was 0.153. AAGATGTA was tested, and the “PBM E-score” value was 0.0402. For AGCGGGTA, the “PBM E-score” value was -0.107. CCGAAATC was tested, and the “PBM E-score” value was 0.0152. CGTCTTAC was tested, and the “PBM E-score” value was -0.0338. With CCCTTACG the “PBM E-score” value was -0.322. With TGTGCAAA the “PBM E-score” value was 0.00039. CATATCTA was tested, and the “PBM E-score” value was 0.176. With GGCTCAAC the “PBM E-score” value was -0.238. For TGTTGGAA, the “PBM E-score” value was 0.113. CATGCCCC was tested, and the “PBM E-score” value was -0.0674. With AGACTTGA the “PBM E-score” value was 0.0655. With GCATGCGC the “PBM E-score” value was -0.164. In the case of AGTACAAT, the “PBM E-score” value is reported as -0.0129. For AACACGCA, the “PBM E-score” value was -0.0376. In the case of CGTCTCCC, the “PBM E-score” value is reported as -0.0248. For GAGCGTGC, the “PBM E-score” value was -0.0127. In the case of ATCGCAGG, the “PBM E-score” value is reported as -0.0915. For AGCAGATC, the “PBM E-score” value was 0.0023. For ATATTTGC, the “PBM E-score” value was 0.101. For CTCGTAGC, the “PBM E-score” value was 0.00986. ATCTGTTC was tested, and the “PBM E-score” value was 0.0998. With CACTTTAG the “PBM E-score” value was 0.0171. For ATTGAGAC, the “PBM E-score” value was 0.122. With GGATGTAA the “PBM E-score” value was 0.125. GGATTCTA was tested, and the “PBM E-score” value was -0.117. With GGGCAGAA the “PBM E-score” value was 0.131. With GCAGAGGC the “PBM E-score” value was -0.185. With AAATAACG the “PBM E-score” value was 0.21. For ATCGCCTG, the “PBM E-score” value was -0.104. With CGGGCGAG the “PBM E-score” value was 0.127. In the case of AGACGCAA, the “PBM E-score” value is reported as 0.0173. In the case of GCGCAAAC, the “PBM E-score” value is reported as 0.046. With GCTGCAAC the “PBM E-score” value was 0.0712. For ATGTGTTC, the “PBM E-score” value was 0.0256. For AGGGCAAA, the “PBM E-score” value was 0.00224. CATGAAAG was tested, and the “PBM E-score” value was -0.00226. For CATACGGA, the “PBM E-score” value was -0.084. For CCGGGCGC, the “PBM E-score” value was -0.103. With AGCGAGGA the “PBM E-score” value was -0.105. CAACTACC was tested, and the “PBM E-score” value was 0.0836. With CGAGCGCA the “PBM E-score” value was 0.0982. With TAGACGCA the “PBM E-score” value was -0.146. With ACTTAAAC the “PBM E-score” value was 0.145. For ATGCCCGC, the “PBM E-score” value was -0.0459. In the case of CACATGAG, the “PBM E-score” value is reported as -0.0681. TCCGGAAA was tested, and the “PBM E-score” value was 0.137. With CGCACCCG the “PBM E-score” value was -0.0241. For TCGACGAA, the “PBM E-score” value was -0.21. With GTTAGGAA the “PBM E-score” value was 0.117. With GCCAGCAC the “PBM E-score” value was -0.106. In the case of ACTACAGC, the “PBM E-score” value is reported as -0.0318. For CTGTCCAC, the “PBM E-score” value was -0.0152. AAATATAA was tested, and the “PBM E-score” value was 0.224. With CCACGAGG the “PBM E-score” value was -0.177. For AGTGTAAT, the “PBM E-score” value was 0.0365. In the case of CACTAAAC, the “PBM E-score” value is reported as 0.0968. For AAACGGCG, the “PBM E-score” value was 0.149. In the case of ACAATTTG, the “PBM E-score” value is reported as 0.0452. AAACTGTA was tested, and the “PBM E-score” value was 0.135. With GGTGGGGA the “PBM E-score” value was 0.318. For AAACCGAG, the “PBM E-score” value was 0.114. With ATGACACG the “PBM E-score” value was 0.101. In the case of AGCGTCGC, the “PBM E-score” value is reported as -0.158. With AGGACGGA the “PBM E-score” value was -0.085. With GCATAATA the “PBM E-score” value was 0.197. For AAGCAGGG, the “PBM E-score” value was -0.153. In the case of CCGGGCGA, the “PBM E-score” value is reported as 0.0118. For CGGATATC, the “PBM E-score” value was 0.0116. With ATAGTCGA the “PBM E-score” value was 0.0834. In the case of ACACTAGA, the “PBM E-score” value is reported as 0.0537. AGCATAGG was tested, and the “PBM E-score” value was -0.058. In the case of CATCTTAC, the “PBM E-score” value is reported as 0.0134. For ACAACTAT, the “PBM E-score” value was 0.187. With CCCATGCA the “PBM E-score” value was 0.00631. In the case of TCTATAAA, the “PBM E-score” value is reported as 0.201. In the case of GACTAGCC, the “PBM E-score” value is reported as -0.182. In the case of ACCGCGAG, the “PBM E-score” value is reported as -0.151. For TTAGTAAA, the “PBM E-score” value was 0.186. CGGAACCA was tested, and the “PBM E-score” value was 0.00676. For CGGCCCAA, the “PBM E-score” value was 0.0104. ATTGATGA was tested, and the “PBM E-score” value was 0.0256. AGGGGATG was tested, and the “PBM E-score” value was 0.0956. AAGTAGGC was tested, and the “PBM E-score” value was 0.0462. For AGATGCCG, the “PBM E-score” value was -0.0209. With ACGATGGA the “PBM E-score” value was 0.00249. With CGTCTTGC the “PBM E-score” value was -0.0115. With GATTTAAA the “PBM E-score” value was 0.113. AATAAGCT was tested, and the “PBM E-score” value was 0.0505. For ACCACCAT, the “PBM E-score” value was 0.0431. For GCTTGTTA, the “PBM E-score” value was 0.0415. For GCCCTTTA, the “PBM E-score” value was -0.182. With AAGCTAGG the “PBM E-score” value was -0.0794. With CCCCAGTC the “PBM E-score” value was -0.176. For CAGCAATA, the “PBM E-score” value was -0.0432. For GCTATAGC, the “PBM E-score” value was -0.0419. In the case of CAGGCCCC, the “PBM E-score” value is reported as -0.0848. For CCAATATA, the “PBM E-score” value was -0.103. CATTCCGG was tested, and the “PBM E-score” value was 0.0164. For GCCATTAC, the “PBM E-score” value was 0.181. For AGGGCTTC, the “PBM E-score” value was -0.0834. With ATCAAGAT the “PBM E-score” value was 0.0655. GGCCGATA was tested, and the “PBM E-score” value was -0.079. For ACCTATCG, the “PBM E-score” value was -0.0147. In the case of TTCACGAA, the “PBM E-score” value is reported as -0.046. In the case of ATGGCTTA, the “PBM E-score” value is reported as 0.0392. In the case of TACTTTAA, the “PBM E-score” value is reported as 0.251. In the case of ACAAGGGG, the “PBM E-score” value is reported as -0.092. AACATCTG was tested, and the “PBM E-score” value was -0.155. CTGTGACA was tested, and the “PBM E-score” value was 0.102. For ATAGACGC, the “PBM E-score” value was 0.0365. In the case of CCGCTGCA, the “PBM E-score” value is reported as -0.0719. With ATCAGGAA the “PBM E-score” value was 0.02. CTGCGAAG was tested, and the “PBM E-score” value was -0.277. For AACAGAGC, the “PBM E-score” value was 0.0874. AGCCGAGA was tested, and the “PBM E-score” value was -0.102. In the case of GGCACCCC, the “PBM E-score” value is reported as -0.0957. With CAAGGAGG the “PBM E-score” value was -0.075. With CTGTCTTA the “PBM E-score” value was -0.132.
